Measured values: patent publication US7964221B2, “Composition and methods of use of an immunomodulator” (priority 2006, dated 2011)

Test system: opportunistic infections (OI) and co-infections

Substance: zidovudine (AZT), lamividine (3TC), and efavirenz (EFV) [AZT/3TC/EFV]
- Patients with opportunistic infections (OI) (32 week reporting period): 6 (30%) N(%)
- Cachexia (32 weeks treatment period): 3(15%) N(%)
- Herpes (32 weeks treatment period): 4 (20%) N(%)
- Oral/esophageal candidiasis (32 weeks treatment period): 4 (20%) N(%)
- Hepatitis C (32 weeks treatment period, relapses): 2 (10%) N(%)
